PubChem BioAssay AID588855 (National Center for Advancing Translational Sciences (NCATS), 2011)
About 5,000 (1.2%) of roughly 410,000 compounds were called active. The shares of active, inactive and inconclusive entries below differ from those in the screen. Calls come from the whole dose curve; as a rule, active = well fitted inhibition curve with a large enough effect; inconclusive = small, poorly fitted or top-dose-only effect; inactive = no such curve, though single readings can be large or run the other way. Potencies of inconclusive entries are doubtful fits and often do not repeat.

assay: qHTS for Inhibitors of TGF-b; conditions: HepG2 CAGA-GFP TGF-b/SMAD3 reporter, GFP fluorescence, 18 h, TGF-beta stimulated, 500 pg/mL final; series mostly up to 46.1 µM; activity, negative = inhibition: at the top concentration; note: nearly all actives have a fitted effect of over 65% in size
Summary of the method: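 Read-out: total well GFP (ex488/em500-530) summed from mean per-cell fluorescence. Cells: HEPG2 CAGA-GFP, 1% FBS DMEM, 18 h at 37 degrees C with 500 pg/mL final TGF-beta. Unstimulated wells served as the full-inhibition control; stimulated DMSO wells = 0%.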
% is set by controls: 0 for no effect and ±100 for the full control effect; potency is the fitted concentration of half-maximal effect; tags give direction and shape of the fitted curve.

Row | Compound | Potency | activity, negative = inhibition
1 | CCN(C[C@H]1N[C@@](C)(C(=O)OC)[C@H]2C(=O)N(Cc3ccccc3)C(=O)[C@@H]12)C(=O)Nc1ccccc1 | inconclusive: 22.4 µM [inhibitor, single point] | –
2 | O=C1N(c2cccc(Cl)c2)C(c2cccnc2)N2CCCN12 (stereo not given) | – | inactive: 21.5%
3 | O=C(CN1CCN(S(=O)(=O)c2cc(Br)ccc2Br)CC1)NCc1ccccc1Cl | inconclusive: 35.5 µM [inhibitor, single point] | –
4 | C=C(C)C(Cc1c(OC)ccc(C(=O)/C=C/c2ccc(O)cc2)c1O)OO (stereo not given) | inconclusive: 35.5 µM [inhibitor, partial curve, poor fit] | –
5 | CCCC[C@@H](C)C[C@@H](C)C(=O)N(C)[C@@H](CC(C)C)C(=O)N[C@H](C(=O)N(C)[C@H](C(=O)N1C[C@@H](O)C[C@H]1C(=O)N1C(=O)C=C[C@@H]1C)C(C)C)C(C)OC(C)=O (stereo not given in full) | inconclusive: 5.62 µM [inhibitor, full curve, poor fit] | –
6 | Cc1ccccc1-c1nc(CN2C(=O)CN=C(c3ccccc3)c3ccccc32)c(C)o1 | inconclusive: 25.1 µM [inhibitor, single point] | –
7 | CC(N)Cc1c[nH]c2cc3c(cc12)OCCO3 (stereo not given) | inconclusive: 0.794 µM [inhibitor, full curve, poor fit] | –
8 | COc1ccccc1-c1nn2c(=O)cc(CN3CCN(C(=O)COc4ccccc4Cl)CC3)nc2s1 | inconclusive: 0.316 µM [inhibitor, full curve, poor fit] | –
9 | CCc1ccc(-n2nc(C)c3c2NC(=O)CSC3c2ccc(C(=O)OC)cc2)cc1 (stereo not given) | – | inactive: -18.9%
10 | O=c1c2ccccc2ccc2ccc(P(=O)(O)O)cc12 | inconclusive: 0.794 µM [inhibitor, full curve, poor fit] | –
11 | COc1ccc(-n2nnnc2C(c2ccccc2)N2CCC3(CC2)C(=O)NCN3c2ccccc2)cc1 (stereo not given) | inconclusive: 35.5 µM [inhibitor, single point] | –
12 | CCOC(=O)CNC(=O)N1c2ccccc2Sc2ccccc21 | inconclusive: 35.5 µM [inhibitor, single point] | –
13 | CC(C)(C)c1ccc(S(=O)(=O)Nc2ccc(O)c(Sc3nc4ccccc4s3)c2)cc1 | inconclusive: 25.1 µM [inhibitor, partial curve, poor fit] | –
14 | CCOP(=O)(CN(CC)CCNP(=O)(OCC)OCC)OCC | inconclusive: 2.24 µM [inhibitor, partial curve, poor fit] | –
15 | O=C(C1CCCN(c2nnc(-n3cccc3)s2)C1)N1CCC2(CC1)OCCO2 (stereo not given) | inconclusive: 15.8 µM [inhibitor, single point] | –
16 | C=CCn1c(O)c(C(CC)=Nc2cccc(C(F)(F)F)c2)c(=O)[nH]c1=O | – | inactive: -0.874%
17 | CCn1ccnc1CN1CCCC(C(=O)c2cc(C)c(OC)c(C)c2)C1 (stereo not given) | inconclusive: 35.5 µM [inhibitor, single point] | –
18 | Cc1cc(NC(=O)CCl)on1 | – | inactive: 0%
19 | Cc1ccc(-c2nc3c(=O)n(C)c(=O)nc-3n(C)n2)cc1 | active: 0.794 µM | –
20 | CCN(CC)C(=O)c1ccc(NC(=O)COc2ccc(-c3nn(C)c(=O)c4ccccc34)cc2)cc1 | active: 10 µM | –

Row | Compound | Potency | activity, negative = inhibition
21 | CCC(C)C1NC(=O)C2CCCN2C(=O)C(CC(C)C)OC(=O)CCNC(=O)C(C)N(C)C(=O)C(C(C)C)N(C)C1=O (stereo not given) | – | inactive: -13.4%
22 | COC(=O)C(Cc1ccc(N(CCCl)CCCl)cc1)N=Cc1ccccc1O (stereo not given) | inconclusive: 10 µM [inhibitor, partial curve, poor fit] | –
23 | Cc1ccc(C(O)(c2ccc(C)c(C)c2)C2CN3CCC2CC3)cc1C (stereo not given) | inconclusive: 35.5 µM [inhibitor, single point] | –
24 | COC(=O)C1=C(c2cccc(OCc3ccccc3)c2)C[C@@H]2CC[C@H]1N2C(=O)NCc1ccccc1OC | inconclusive: 28.2 µM [inhibitor, single point] | –
25 | C=CCn1c(O)c(C=Nc2ccc(OC)cc2C)c(=O)[nH]c1=O | – | inactive: -2.38%
26 | COc1ccc(C(=O)C2CCCN(Cc3ccc(F)cc3F)C2)cc1F (stereo not given) | inconclusive: 11.2 µM [inhibitor, partial curve, poor fit] | –
27 | COc1ccccc1-n1c(O)c(/C=C2\C=Nc3ccccc32)c(=O)[nH]c1=O | – | inactive: 1.82%
28 | CC[C@H]1CN2CCc3cc(OC)c(OC)cc3[C@@H]2C[C@@H]1C[C@H]1NCCc2cc(OC)c(OC)cc21 | active: 0.0891 µM | –
29 | CCOc1ccccc1CN1C2CCC1CC(c1ccc(C)cc1)C2 (stereo not given) | inconclusive: 25.1 µM [inhibitor, single point] | –
30 | CCN1C(=NCCOC)N[C@@H](c2cccc(F)c2)C(C(=O)OC)=C1C | inconclusive: 15.8 µM [inhibitor, single point] | –
31 | CCN1C[C@@]2(COC)C3[C@@H](OC)[C@H]4[C@@H]1[C@@]3(C1C[C@@]3(O)[C@H](OC(=O)c5ccccc5)C1[C@]4(OC(C)=O)[C@@H](O)[C@H]3OC)[C@@H](OC)C[C@H]2O (stereo not given in full) | – | inactive: 25.6%
32 | CC(O)(CS(=O)(=O)c1cccc(C(F)(F)F)c1)C(=O)Nc1ccc(C(F)(F)F)cc1 (stereo not given) | inconclusive: 35.5 µM [inhibitor, single point] | –
33 | COc1cc([C@@H]2c3cc4c(cc3[C@H](O)[C@H]3COC(=O)[C@H]23)OCO4)cc(OC)c1OC | inactive | –
34 | COc1cccc(C(c2nnnn2Cc2ccccc2)N2CCC3(CC2)C(=O)NCN3c2ccccc2)c1OC (stereo not given) | inconclusive: 35.5 µM [inhibitor, single point] | –
35 | Cc1c(Cl)ccc2sc(N3CCN(C(=O)CCS(=O)(=O)c4ccc(F)cc4)CC3)nc12 | active: 8.91 µM | –
36 | Cn1c(NN=O)nc2ccccc21 | inconclusive: 25.1 µM [inhibitor, single point] | –
37 | CCC12CN3CC(CC)(CN(C1)C3c1c(C)[nH]c(=O)[nH]c1=O)C2=O (stereo not given) | – | inactive: 44.4%
38 | BrCCc1ccccc1 | – | inactive: 1.26%
39 | Cc1sc(NC(=O)Cn2c(=O)oc3ccccc32)nc1-c1ccc(Cl)cc1 | inconclusive: 11.2 µM [inhibitor, partial curve] | –
40 | O=c1c2ccccc2nc(Cc2ccccc2)n1-c1cccc(O)c1 | inconclusive: 6.31 µM [inhibitor, partial curve] | –
